Laboratory results: publication PMC12136788
The list shows a part of the results.

B1: chr17:79834786:79834887:-|CDS|ENSG00000141582|unk|FALSE|unique (ssRNA)
RNA: GGGAGUUCUACAGUCCGACGAUCAAUGAUGCCGGCCCCCAAAGAGGCUGUGACGGGCAACGGGAUUGGGGGCAAGAUGAAGAUAGUCAAGAACAAGAACAAGAACGGACGCAUCGUGAUCGUGAUGAGCAAAUACAUGGAGAACAACAGAGGAUUGAGCAUCA
B2: chr19:33301014:33301115:-|3pUTR|ENSG00000245848|unk|FALSE|unique (ssRNA)
RNA: GGGAGUUCUACAGUCCGACGAUCUCCCUGCGAGGAGGGGAGAAUUCUUGGGGCUGAGCUGGGAGCCCGGCAACUCUAGUAUUUAGGAUAACCUUGUGCCUUGGAAAUGCAAACUCACCGCUCCAAUGCCUACUGAGUAGGGGGCAACAGAGGAUUGAGCAUCA
B3: chr15:78283234:78283431:-|three_prime_utr|ENSG00000140395|control|control|control (ssRNA)
RNA: GGGAGUUCUACAGUCCGACGAUCUCUCCAGGCUUAUGCUGCAAAGAGAAUGUACGGAUUGAUCAUGACAUUCCUUACCUUCUUAGGCUUGUUUAAAAGAAAUAUAGCAUUUAUUGUAGCAAAGACUUAAAUUUUGUAGAUACACAACAGAGGAUUGAGCAUCA
B4: chr7:7607225:7607326:+|3pUTR|ENSG00000164654|msi1|total|mutant (ssRNA)
RNA: GGGAGUUCUACAGUCCGACGAUCUUUGAGUGAUUUUGAUAUGCUUCACAGAGACAAAUGCUGCCAAAAUAAACAUCGAAGUACCGACAUGAGUUCUGUUCAGCAGGUUGAAAAGUCUGAUUCCGAAAAACUUUCUAAGUUUUGCAACAGAGGAUUGAGCAUCA
B5: chr11:7467339:7467451:+|3pUTR|ENSG00000170743|unk|FALSE|unique (ssRNA)
RNA: GGGAGUUCUACAGUCCGACGAUCCCAAGAGAAUACCAAGACAAGCAGGCUGUUCCCUGGAAAAAAUCUAAUGCAAGGAGGGCUAGUUCACAGCAAAUUCACUGCCUCCUCCCAUGCACGUGGUAGAGAGUACCAGUAUCAACACAACAGAGGAUUGAGCAUCA
B6: ENSG00000120616:stop:overlap|stop_codon|ENSG00000120616|stop_codon|NA|stop_codon (ssRNA)
RNA: GGGAGUUCUACAGUCCGACGAUCAAUCAGAAAAGCCAGCACUGAACAACAUAGCAGACAACACAGUAGCGAUGGAGGUGACGUAGCUUCCUCCGAGUGGAACUGCAGCCUGGGGACUUGAUUAGGUGCUAUGCAUCAGUAGCACAACAGAGGAUUGAGCAUCA
B7: chr6:134169319:134169461:-|3pUTR|ENSG00000118515|unk|total|mutant (ssRNA)
RNA: GGGAGUUCUACAGUCCGACGAUCUGCAUUCCUGAUAAUUGUAUGUAUUGUAUAAAGAACGUCUGUACAUUGGGUUAUAACACCCGUAUAUUUAAACUUACAGGCUUAUUUGUAAUGUAAACCACCAUUUUAAUGUACUGUAAUCAACAGAGGAUUGAGCAUCA
B8: chr1:155263244:155263345:-|CDS|ENSG00000176444|unk|total|mutant (ssRNA)
RNA: GGGAGUUCUACAGUCCGACGAUCGUAUCUGACCUCAGAGGCAGAGGAACACCACCAGCUCUUCGAUCUGAUUGAAAGCAUGCCCGAGUAUGAACCAGCUAAGCGGCUGACCUUGGGUGAAGCCCUUCAGCAUCCUUUCUUCGCCAACAGAGGAUUGAGCAUCA
B9: chr8:94249252:94250309:-|three_prime_utr|ENSG00000164949|control|control|control (ssRNA)
RNA: GGGAGUUCUACAGUCCGACGAUCUCACCCAGAUGUCCCUUUGAUGGCCGUUGUUGAAGGCCAUUGGGACCAAUAAUCUAUAUUAGAUUGAAUACUUAAGUUAGAUGUGGUUUCCCCCAUUGUAGCAGGGAGCUAGCGUAUUAGCAACAGAGGAUUGAGCAUCA
B10: chr16:5044585:5044836:-|CDS|ENSG00000153446|control|control|control (ssRNA)
RNA: GGGAGUUCUACAGUCCGACGAUCGAGUAGCUGGGACUACAGGAGCGUGCCACCAUACCUGGCUAAUUUUUAUAUUUUUUUAGUAGAGACAGGGUUUCAUCAUGUUGCUCAUGCUGGUCUCGAACUCCUGAUCUCAAGAGAUCCCAACAGAGGAUUGAGCAUCA
B11: chr1:51356092:51356193:-|3pUTR|ENSG00000085832|unk|total|mutant (ssRNA)
RNA: GGGAGUUCUACAGUCCGACGAUCUUCAGAGAUAAGGAAAAAUAUUUUGCACAGAUUUACUCCACUAUGGAAAAGGGAUGCUGCCGGUUGAACCAUUACCGCCUCAGAUUCGAUCUUUUCCUAACUAAAAAUAUUAAAGCCUCACAACAGAGGAUUGAGCAUCA
B12: chr14:39032579:39032680:-|3pUTR|ENSG00000100934|msi1|total|mutant (ssRNA)
RNA: GGGAGUUCUACAGUCCGACGAUCUGAUUUUAUAAUGGUAAUUUUCAUGAUGAUAAUGUUUUUGGUUAUUUGGAAAGACCGUUCCGAGAUGAAAGGUUUUUUUGGGUAACAAUCCCGCAGCUGACAAAAAAUGUGAAAUUUCCACAACAGAGGAUUGAGCAUCA
B13: chr7:17792983:17793084:-|3pUTR|ENSG00000071189|msi1|FALSE|unique (ssRNA)
RNA: GGGAGUUCUACAGUCCGACGAUCGACAUGCCUUAGGUAACUGCAGAAAUAGCAAAUUAAAUGAUUAAUGAGCUUAUUAGUCAUAGUAAACAUACAGAUUCCUAAUUCUAUGACAGUGUACAUAUAUGAAAAUAAAUGAUGAAACAACAGAGGAUUGAGCAUCA
B14: ENSG00000166181:stop:overlap|stop_codon|ENSG00000166181|stop_codon|NA|stop_codon (ssRNA)
RNA: GGGAGUUCUACAGUCCGACGAUCGUGGGAAAUAUAGCAGCAAUUUGGGCAACUUUAAUUAUGAGAGGAGCCUUCAGGGGAAGUAGAGGUGGCCGAGGUUGGGGCACACGAGGAAAUCGUAGUCGGGGAAGACUCUACUGAAUACAACAGAGGAUUGAGCAUCA
B15: chr1:67411267:67411372:-|3pUTR|ENSG00000142864|unk|total|mutant (ssRNA)
RNA: GGGAGUUCUACAGUCCGACGAUCAACUCAUUUCCAAACAUGUACCAUGUUUUAUAAACCUCUUGAUUUCCAGCAACAUACUACCGAAAACACCUGCUACUCAAAACACAACUUCUCAGUGUCAUCCAUUGCUGUCGUGAGAGACAACAGAGGAUUGAGCAUCA
B16: chr8:102207567:102207681:-|3pUTR|ENSG00000048392|unk|FALSE|unique (ssRNA)
RNA: GGGAGUUCUACAGUCCGACGAUCUAUUAAUUGCAAUGAUGUUGUAAUAAAAUACUCUCAUUUCCUUAAAAUAAUUGUGAUUCUAGGUCCUAGGAUCUAGAAUUAGAUCUUUGUAUUUUUAAUGCUUAGGGGAAGAAUAUAAGUCAACAGAGGAUUGAGCAUCA
B17: chr1:31365252:31365939:-|three_prime_utr|ENSG00000121769|control|control|control (ssRNA)
RNA: GGGAGUUCUACAGUCCGACGAUCAUCCAGUUCCAGUUCCCAUGGUGUAUGUGGUUUUUUUUUUUUUUUUUUAACUGCACUCAUAGGGUGCUCUGAGGUCAAUAAAGCAGAGCCAAGGCCACCCAGUUGCCUUUUUGCCUUUGGCAACAGAGGAUUGAGCAUCA
B18: chr20:1375301:1375603:-|CDS|ENSG00000088832|control|control|control (ssRNA)
RNA: GGGAGUUCUACAGUCCGACGAUCGGUAUGCUCUCUCAUUUGUUUUGUUUUGCUUUCUAGUAUUUACCUUUUAUAUUUUUUUAUAGGUGGCAUAUUUAUACGGUUCAAAAAUAAAAAAAGUGAAAAGUCUCACCCUCAUGCCAUCAACAGAGGAUUGAGCAUCA
B19: chr16:85089731:85089832:+|3pUTR|ENSG00000135709|msi1|FALSE|unique (ssRNA)
RNA: GGGAGUUCUACAGUCCGACGAUCUUGGAAGGUUUCCCUCCGGGGAAUGCCUCCCUGGAAUGUUCCAGAGACGGAACAUUCUCUAGAGACAACAGUCUGUGCUGCAGAUUGGUUGGAUCACAGAAUGUGUGUCUGGGGCAUUAUCAACAGAGGAUUGAGCAUCA
B20: chr16:18805221:18805325:-|3pUTR|ENSG00000157106|unk|FALSE|bound_elsewhere (ssRNA)
RNA: GGGAGUUCUACAGUCCGACGAUCAAGAAUUCUAUGUUCUGAAAUGCACACUUUUAGAAUGUUUUUCUUUGAAAACAGGCUAAUAGUUUUUUCUUUUUUUGACAAAGUUUCAGCUCCUCUUUAAAGUUAUUGUGUCAUUUUUCUCAACAGAGGAUUGAGCAUCA
B21: ENSG00000070961:be:win_4701|3pUTR|ENSG00000070961|bound_else_gene|NA|bound_elsewhere_windowed (ssRNA)
RNA: GGGAGUUCUACAGUCCGACGAUCUUUUCUAAUCUUUAGAGACCUUCACACAGCAUGAGGGCUGUUGGCAUUUUGAAAAAGGUUAAUAAGUAGAAGCAUACAUGUUUUCCUUUUGUUUUUGAAACUUGUUUGUAAACAUAAAUACAACAGAGGAUUGAGCAUCA
B22: chr15:78897113:78897311:+|3pUTR|ENSG00000185787|unk|total|mutant (ssRNA)
RNA: GGGAGUUCUACAGUCCGACGAUCUAACAAUUGAUGUUUGUUUUCUGUUUGAUUUUAAACAGAGAAAAAAUAAAAGGGGGUAACCGCUCCUUUUUUCUUCUUUCUUUUUUUUUUUCAUUUCAAAAUUGCUGCCAGUGUUUUCAACAACAGAGGAUUGAGCAUCA

Target: T1, UNK ZnF1-6 (called full-length) (human, UniProt Q9C0B0 30-357)
T1 sequence: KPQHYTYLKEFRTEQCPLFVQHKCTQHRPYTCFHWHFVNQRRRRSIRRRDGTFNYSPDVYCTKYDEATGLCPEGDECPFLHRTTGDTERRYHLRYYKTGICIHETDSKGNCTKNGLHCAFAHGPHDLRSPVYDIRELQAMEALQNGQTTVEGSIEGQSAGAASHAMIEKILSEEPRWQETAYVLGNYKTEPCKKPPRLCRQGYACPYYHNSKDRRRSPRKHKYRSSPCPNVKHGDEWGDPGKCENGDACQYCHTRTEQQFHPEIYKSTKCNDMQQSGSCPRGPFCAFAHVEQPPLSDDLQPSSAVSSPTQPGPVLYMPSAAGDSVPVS
Assay: nsRBNS (natural sequence RNA bind-n-seq); RBNS binding buffer (assumed for nsRBNS): 25 mM Tris pH 7.5, 150 mM KCl, 3 mM MgCl2, 0.01% Triton X-100, 500 ug/ml BSA, 20 U/ml SUPERase-In, 4 C; UNK is unkempt and MSI1 is Musashi-1; names of the RNAs are library labels; protein concentration not given here; high values mean tight binding

**Q.** B1 was tested. Which binding signal did it give?
**A.** The binding signal was 0.763 enrichment R.

**Q.** With B2 as the binder, how does the binding signal read?
**A.** The binding signal was 4.16 enrichment R.

**Q.** B3 was tested. Which binding signal did it give?
**A.** Its binding signal is 13.8 enrichment R.

**Q.** For B4, which binding signal is on record?
**A.** Its binding signal is 0.348 enrichment R.

**Q.** For B5, which binding signal is on record?
**A.** Its binding signal is 0.613 enrichment R.

**Q.** Which binding signal does the source give for B6 here?
**A.** Its binding signal is 0.62 enrichment R.

**Q.** For B7, which binding signal is on record?
**A.** Its binding signal is 0.542 enrichment R.

**Q.** Which binding signal does the source give for B8 here?
**A.** Its binding signal is 0.48 enrichment R.

**Q.** Which binding signal does the source give for B9 here?
**A.** Its binding signal is 1.75 enrichment R.

**Q.** How did the binding signal turn out when B10 was run?
**A.** Its binding signal is 2.13 enrichment R.

**Q.** How did the binding signal turn out when B11 was run?
**A.** The binding signal was 0.387 enrichment R.

**Q.** With B12 as the binder, how does the binding signal read?
**A.** Its binding signal is 0.376 enrichment R.

**Q.** With B13 as the binder, how does the binding signal read?
**A.** Its binding signal is 1.33 enrichment R.

**Q.** With B14 as the binder, how does the binding signal read?
**A.** The binding signal was 6.77 enrichment R.

**Q.** For B15, which binding signal is on record?
**A.** The binding signal was 0.367 enrichment R.

**Q.** B16 was tested. Which binding signal did it give?
**A.** The binding signal was 0.471 enrichment R.

**Q.** How did the binding signal turn out when B17 was run?
**A.** The binding signal was 1.85 enrichment R.

**Q.** How did the binding signal turn out when B18 was run?
**A.** The binding signal was 3.7 enrichment R.

**Q.** Which binding signal does the source give for B19 here?
**A.** Its binding signal is 0.337 enrichment R.

**Q.** With B20 as the binder, how does the binding signal read?
**A.** The binding signal was 0.773 enrichment R.

**Q.** How did the binding signal turn out when B21 was run?
**A.** Its binding signal is 0.479 enrichment R.

**Q.** For B22, which binding signal is on record?
**A.** The binding signal was 0.744 enrichment R.
